# From the supplement of paper PMC8728848
# The other results are listed elsewhere or left out.
# Assays:
# Assay in all cases: glycan array binding signal (z-score within array); higher = stronger binding
# Conditions in all cases: glycan notation: IUPAC condensed, linker removed
# [1] = molecular target: Gal(b1-4)GlcNAc(b1-3)Gal(b1-4)GlcNAc(b1-6)[Gal(b1-3)]GalNAc
# Summary of the method: (§1)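 From the Consortium for Functional Glycomics database, 3228 arrays were curated, keeping only those whose protein sequence was available. Binding is given as a within-array Z-score averaged across arrays sharing a protein sequence and across linkers. Negative Z-scores can be read as non-binding.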
# [2] = molecular target: Gal(b1-4)GlcNAc(b1-3)Gal(b1-4)[Fuc(a1-3)]GlcNAc(b1-3)Gal(b1-4)[Fuc(a1-3)]GlcNAc
# Summary of the method: as §1
# [3] = molecular target: Gal(b1-4)GlcNAc(b1-3)GalNAc
# Summary of the method: as §1
# [4] = molecular target: Gal(b1-4)GlcNAc(b1-3)[Fuc(a1-3)GlcNAc(b1-6)]Gal(b1-4)Glc
# Summary of the method: as §1
# [5] = molecular target: Gal(b1-4)GlcNAc(b1-3)[Gal(b1-4)GlcNAc(b1-6)]Gal(b1-4)GlcNAc
# Summary of the method: as §1
# [6] = molecular target: Gal(b1-4)GlcNAc(b1-3)[GlcNAc(b1-6)]Gal(b1-4)GlcNAc
# Summary of the method: as §1
# [7] = molecular target: Gal(b1-4)GlcNAc(b1-6)Gal(b1-4)GlcNAc
# Summary of the method: as §1
# [8] = molecular target: Gal(b1-4)GlcNAc(b1-6)GalNAc
# Summary of the method: as §1
# [9] = molecular target: Gal(b1-4)GlcNAc(b1-6)[Gal(b1-3)]GalNAc
# Summary of the method: as §1
# [10] = molecular target: Gal(b1-4)GlcNAc(b1-6)[Gal(b1-4)GlcNAc(b1-3)]GalNAc
# Summary of the method: as §1
# Gal(b1-4)GlcNAc6P = molecular target: Gal(b1-4)GlcNAc6P
# Summary of the method: as §1
# Gal(b1-6)Gal = molecular target: Gal(b1-6)Gal
# Summary of the method: as §1
# Gal3S(b1-3)GalNAc = molecular target: Gal3S(b1-3)GalNAc
# Summary of the method: as §1
# Gal3S(b1-3)GlcNAc = molecular target: Gal3S(b1-3)GlcNAc
# Summary of the method: as §1
# [11] = molecular target: Gal3S(b1-3)[Fuc(a1-4)]GlcNAc
# Summary of the method: as §1
# Gal3S(b1-4)Glc = molecular target: Gal3S(b1-4)Glc
# Summary of the method: as §1
# Gal3S(b1-4)Glc6S = molecular target: Gal3S(b1-4)Glc6S
# Summary of the method: as §1
# Gal3S(b1-4)GlcNAc = molecular target: Gal3S(b1-4)GlcNAc
# Summary of the method: as §1
# [12] = molecular target: Gal3S(b1-4)[Fuc(a1-3)]Glc6S
# Summary of the method: as §1
# [13] = molecular target: Gal3S(b1-4)[Fuc(a1-3)]GlcNAc
# Summary of the method: as §1
# [14] = molecular target: Gal3S(b1-4)[Fuc(a1-3)]GlcNAc6S
# Summary of the method: as §1
# Gal3S4S(b1-4)GlcNAc = molecular target: Gal3S4S(b1-4)GlcNAc
# Summary of the method: as §1
# Gal3S6S(b1-4)GlcNAc = molecular target: Gal3S6S(b1-4)GlcNAc
# Summary of the method: as §1
# Gal3S6S(b1-4)GlcNAc6S = molecular target: Gal3S6S(b1-4)GlcNAc6S
# Summary of the method: as §1
# Gal4S(b1-4)GlcNAc = molecular target: Gal4S(b1-4)GlcNAc
# Summary of the method: as §1
# Gal4S6S(b1-4)GlcNAc = molecular target: Gal4S6S(b1-4)GlcNAc
# Summary of the method: as §1
# Gal6P(b1-4)GlcNAc = molecular target: Gal6P(b1-4)GlcNAc
# Summary of the method: as §1
# Gal6S(b1-3)GlcNAc = molecular target: Gal6S(b1-3)GlcNAc
# Summary of the method: as §1
# Gal6S(b1-3)GlcNAc6S = molecular target: Gal6S(b1-3)GlcNAc6S
# Summary of the method: as §1
# Gal6S(b1-4)Glc = molecular target: Gal6S(b1-4)Glc
# Summary of the method: as §1
# Gal6S(b1-4)Glc6S = molecular target: Gal6S(b1-4)Glc6S
# Summary of the method: as §1
# Gal6S(b1-4)GlcNAc = molecular target: Gal6S(b1-4)GlcNAc
# Summary of the method: as §1
# Gal6S(b1-4)GlcNAc6S = molecular target: Gal6S(b1-4)GlcNAc6S
# Summary of the method: as §1
# GalNAc(a1-3)Gal = molecular target: GalNAc(a1-3)Gal
# Summary of the method: as §1
# GalNAc(a1-3)GalNAc = molecular target: GalNAc(a1-3)GalNAc
# Summary of the method: as §1
# [15] = molecular target: GalNAc(a1-3)GalNAc(b1-3)Gal(a1-4)Gal(b1-4)Glc
# Summary of the method: as §1
# [16] = molecular target: GalNAc(a1-3)GalNAc(b1-3)Gal(a1-4)Gal(b1-4)GlcNAc
# Summary of the method: as §1
# GalNAc(b1-3)Gal = molecular target: GalNAc(b1-3)Gal
# Summary of the method: as §1
# [17] = molecular target: GalNAc(b1-3)Gal(a1-4)Gal(b1-4)GlcNAc
# Summary of the method: as §1
# [18] = molecular target: GalNAc(b1-3)Gal(a1-4)Gal(b1-4)GlcNAc(b1-3)Gal(b1-4)Glc
# Summary of the method: as §1
# [19] = molecular target: GalNAc(b1-3)Gal(a1-6)Gal(b1-4)Glc
# Summary of the method: as §1
# GalNAc(b1-3)GalNAc = molecular target: GalNAc(b1-3)GalNAc
# Summary of the method: as §1
# GalNAc(b1-3)GlcNAc = molecular target: GalNAc(b1-3)GlcNAc
# Summary of the method: as §1
# GalNAc(b1-4)Gal(b1-4)Glc = molecular target: GalNAc(b1-4)Gal(b1-4)Glc
# Summary of the method: as §1
# GalNAc(b1-4)GlcNAc = molecular target: GalNAc(b1-4)GlcNAc
# Summary of the method: as §1
binder,measurement,setting,value
EULS2 M4 (Oryza sativa) (protein) MVYCRANPNYAMTARNGAVVLAPANPKDEYQHWIKDMRWSTSIKDEEGYPAFALVNKATGQAIKHSLGQSHPVRLVPYNPEVMDESVLWTESRDVGNGFRCIRMVNNIYLNFDAFHGDKYHGGVRDGTDIVLWKWCEGDSLRWKIQPYYILEQKLISEEDLNSAVDHHHHHH,glycan array binding signal (z-score),[1],-0.092
same,glycan array binding signal (z-score),[2],-0.793
same,glycan array binding signal (z-score),[3],-0.506
same,glycan array binding signal (z-score),[4],0.396
same,glycan array binding signal (z-score),[5],-0.444
same,glycan array binding signal (z-score),[6],-0.137
same,glycan array binding signal (z-score),[7],0.664
same,glycan array binding signal (z-score),[8],-0.124
same,glycan array binding signal (z-score),[9],-0.529
same,glycan array binding signal (z-score),[10],-0.377
same,glycan array binding signal (z-score),Gal(b1-4)GlcNAc6P,-0.659
same,glycan array binding signal (z-score),Gal(b1-6)Gal,-0.437
same,glycan array binding signal (z-score),Gal3S(b1-3)GalNAc,-0.608
same,glycan array binding signal (z-score),Gal3S(b1-3)GlcNAc,-0.257
same,glycan array binding signal (z-score),[11],-0.208
same,glycan array binding signal (z-score),Gal3S(b1-4)Glc,0.203
same,glycan array binding signal (z-score),Gal3S(b1-4)Glc6S,0.957
same,glycan array binding signal (z-score),Gal3S(b1-4)GlcNAc,-0.155
same,glycan array binding signal (z-score),[12],-0.511
same,glycan array binding signal (z-score),[13],0.414
same,glycan array binding signal (z-score),[14],1.47
same,glycan array binding signal (z-score),Gal3S4S(b1-4)GlcNAc,-0.361
same,glycan array binding signal (z-score),Gal3S6S(b1-4)GlcNAc,-0.485
same,glycan array binding signal (z-score),Gal3S6S(b1-4)GlcNAc6S,0.189
same,glycan array binding signal (z-score),Gal4S(b1-4)GlcNAc,-0.511
same,glycan array binding signal (z-score),Gal4S6S(b1-4)GlcNAc,-0.484
same,glycan array binding signal (z-score),Gal6P(b1-4)GlcNAc,-0.62
same,glycan array binding signal (z-score),Gal6S(b1-3)GlcNAc,-0.021
same,glycan array binding signal (z-score),Gal6S(b1-3)GlcNAc6S,0.689
same,glycan array binding signal (z-score),Gal6S(b1-4)Glc,-0.141
same,glycan array binding signal (z-score),Gal6S(b1-4)Glc6S,-0.068
same,glycan array binding signal (z-score),Gal6S(b1-4)GlcNAc,-0.146
same,glycan array binding signal (z-score),Gal6S(b1-4)GlcNAc6S,-0.349
same,glycan array binding signal (z-score),GalNAc(a1-3)Gal,0.158
same,glycan array binding signal (z-score),GalNAc(a1-3)GalNAc,-0.218
same,glycan array binding signal (z-score),[15],-0.3
same,glycan array binding signal (z-score),[16],-0.51
same,glycan array binding signal (z-score),GalNAc(b1-3)Gal,-0.102
same,glycan array binding signal (z-score),[17],1.04
same,glycan array binding signal (z-score),[18],-0.527
same,glycan array binding signal (z-score),[19],0.215
same,glycan array binding signal (z-score),GalNAc(b1-3)GalNAc,-0.465
same,glycan array binding signal (z-score),GalNAc(b1-3)GlcNAc,-0.464
same,glycan array binding signal (z-score),GalNAc(b1-4)Gal(b1-4)Glc,-0.262
same,glycan array binding signal (z-score),GalNAc(b1-4)GlcNAc,-0.133
